Data: PMC4336329 (PLoS ONE, 2015)
Screen size: about 310,000 compounds; about 2,200 (0.71%) showed an effect of 50% or more. The effect is printed as a negative number. The list shows a part of the results.

target: human ether-à-go-go-related gene (hERG) potassium channel (human, UniProt Q12809); assay: primary screen, population patch clamp on CHO cells stably expressing hERG
Sequence (Q12809 whole entry, looked up): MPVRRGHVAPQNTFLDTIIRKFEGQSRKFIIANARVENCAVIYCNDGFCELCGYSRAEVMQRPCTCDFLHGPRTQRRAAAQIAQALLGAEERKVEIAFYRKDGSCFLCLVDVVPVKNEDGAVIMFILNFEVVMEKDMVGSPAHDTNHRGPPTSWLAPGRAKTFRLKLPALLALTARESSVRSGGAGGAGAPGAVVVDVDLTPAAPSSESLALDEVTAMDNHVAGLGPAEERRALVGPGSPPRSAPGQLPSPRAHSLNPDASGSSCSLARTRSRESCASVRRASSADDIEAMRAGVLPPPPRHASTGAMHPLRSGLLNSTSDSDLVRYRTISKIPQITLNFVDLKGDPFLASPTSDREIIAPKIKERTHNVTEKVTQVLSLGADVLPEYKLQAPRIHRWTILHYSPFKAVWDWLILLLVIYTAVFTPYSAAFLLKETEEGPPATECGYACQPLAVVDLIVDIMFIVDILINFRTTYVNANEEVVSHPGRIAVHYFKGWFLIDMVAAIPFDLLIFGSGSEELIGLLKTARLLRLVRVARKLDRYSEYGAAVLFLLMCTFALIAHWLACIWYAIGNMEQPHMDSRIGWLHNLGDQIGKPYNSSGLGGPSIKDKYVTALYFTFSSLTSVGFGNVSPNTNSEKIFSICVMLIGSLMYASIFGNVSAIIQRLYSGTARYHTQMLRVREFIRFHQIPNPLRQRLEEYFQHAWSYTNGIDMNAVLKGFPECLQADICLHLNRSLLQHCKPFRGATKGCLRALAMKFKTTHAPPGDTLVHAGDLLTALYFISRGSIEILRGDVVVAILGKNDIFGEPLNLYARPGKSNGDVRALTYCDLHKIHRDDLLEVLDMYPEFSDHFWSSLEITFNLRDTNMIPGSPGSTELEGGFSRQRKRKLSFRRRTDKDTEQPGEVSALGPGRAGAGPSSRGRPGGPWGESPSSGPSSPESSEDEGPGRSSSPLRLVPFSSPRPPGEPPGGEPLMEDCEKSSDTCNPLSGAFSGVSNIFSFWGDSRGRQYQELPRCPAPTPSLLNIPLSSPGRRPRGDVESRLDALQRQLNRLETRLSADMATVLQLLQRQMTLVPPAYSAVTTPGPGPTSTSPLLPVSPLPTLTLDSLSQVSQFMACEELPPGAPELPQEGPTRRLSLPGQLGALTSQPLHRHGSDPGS

Going from `O=C(Oc1cccc([N+](=O)[O-])c1)N1CCCCC1` to `CN1CCN(CC(=O)Nc2ccc([N+](=O)[O-])cc2Br)CC1`, the “hERG current change (%, negative = inhibition) at 1uM” value falls from 0.172% to -55.8%.

First: COc1cc(/C=C/C(=O)OCC(=O)Nc2c(C)n(C)n(-c3ccccc3)c2=O)cc(OC)c1OC
Second: COc1cc(CNC(=O)C2CCCN2S(=O)(=O)c2ccccc2)cc(OC)c1OC (centres unmarked)
The “hERG current change (%, negative = inhibition) at 1uM” value of the first is lower: 9.88% for the first, 14% for the second.

Compared with `O=C(Nc1ccc(S(=O)(=O)N2CCCC2)cc1)C1CC(=O)N(c2ccccc2)C1` (centres unmarked), `COc1ccc2nc(SCC(=O)Nc3ccc(S(=O)(=O)N4CCCC4)cc3)c(C#N)cc2c1` is lower in “hERG current change (%, negative = inhibition) at 1uM” value: 17.7% for the first, -3.01% for the second.

First: O=C(NC(=S)N1CCCC1)c1ccc(Cl)cc1
Second: O=C(NCCN1CCCCC1)Nc1ccc(F)cc1F
The “hERG current change (%, negative = inhibition) at 1uM” value of the first is higher: 12.5% for the first, 10.1% for the second.

Going from `COc1ccc(S(=O)(=O)N2CCC3(CC2)OCCN3S(=O)(=O)c2cccs2)cc1OC` to `O=C(O)c1cccc(S(=O)(=O)Nc2cccc(S(=O)(=O)N3CCCCCC3)c2)c1`, the “hERG current change (%, negative = inhibition) at 1uM” value rises from 0.929% to 12.1%.

Compared with `O=C(CSc1nc2sc3c(c2c(=O)n1-c1ccccc1)CCCC3)N/N=C/c1ccc(C(=O)O)cc1`, `O=C1CC(C(=O)Nc2ccc(C(=O)O)cc2)C(c2ccccc2)O1` (centres unmarked) is higher in “hERG current change (%, negative = inhibition) at 1uM” value: 6.47% for the first, 25% for the second.

Going from `O=C(NCCc1ccccc1)C(=O)NCC1CCCO1` (centres unmarked) to `CC(C)C(C(=O)NCc1ccco1)N(CC1CCCO1)C(=O)CNS(=O)(=O)c1ccccc1` (centres unmarked), the “hERG current change (%, negative = inhibition) at 1uM” value rises from 4.35% to 11.3%.

Compared with `CN1C(=S)SC(/[N+]([O-])=C/c2cccnc2)C1(C)C` (centres unmarked), `O=C(NCCN1CCOCC1)c1cc2cc([N+](=O)[O-])ccc2s1` is lower in “hERG current change (%, negative = inhibition) at 1uM” value: 4.74% for the first, -16.7% for the second.

Compared with `CC(NC(=O)CCl)c1ccc(Cl)c(Cl)c1` (centres unmarked), `Cc1ccc(C)c(C(C)NC(=O)c2ccc(Br)o2)c1` (centres unmarked) is higher in “hERG current change (%, negative = inhibition) at 1uM” value: 1.86% for the first, 7.77% for the second.

Going from `O=C(COC(=O)/C=C/c1ccc([N+](=O)[O-])cc1)NCc1ccccc1` to `COc1ccc(NC(=O)Nc2nnc(CC(=O)Nc3ccccc3)s2)cc1`, the “hERG current change (%, negative = inhibition) at 1uM” value falls from 4.71% to 4.6%.

Going from `CCCCC(C(=O)O)C(C)CC(=O)Nc1ccn(-c2ccccc2)n1` (centres unmarked) to `CC1CC(C)CN(CC(=O)NC(c2ccccc2)c2ccccc2)C1.O=C(O)C(=O)O` (centres unmarked), the “hERG current change (%, negative = inhibition) at 1uM” value falls from 14.1% to -23.2%.

First: Clc1ccccc1-c1ccc(/C=N/n2cnnc2)o1
Second: Clc1ccccc1-c1nnn(Cc2ccc(-c3nn[nH]n3)cc2)n1
The “hERG current change (%, negative = inhibition) at 1uM” value of the first is lower: 1.23% for the first, 7.12% for the second.

Going from `O=C(NN/C(=N/S(=O)(=O)c1ccc(Cl)cc1)c1ccccc1)c1ccc(O)cc1` to `O=S(=O)(Nc1cccc(-n2cnnn2)c1)c1cccc(Cl)c1`, the “hERG current change (%, negative = inhibition) at 1uM” value falls from 34% to 13.6%.

Compared with `C[C@@H]1CC[C@@]2(O[C@@H](CCO)C[C@@H](O)[C@@H]2O)O1`, `O=C(C1CC12CCCC2)N1CCC(CO)(Cc2ccccc2Cl)CC1` (centres unmarked) is lower in “hERG current change (%, negative = inhibition) at 1uM” value: 20.7% for the first, 9.62% for the second.

Compared with `COc1cccc(/C=C/C(=O)N(C)CC(=O)Nc2ccc(Cl)c(C(F)(F)F)c2)c1`, `Cc1cc(C)nc(SCc2nnc(SCC(=O)Nc3ccc(Cl)c(C(F)(F)F)c3)o2)n1` is higher in “hERG current change (%, negative = inhibition) at 1uM” value: 16.7% for the first, 17.4% for the second.

First: CCCN(CCC)c1ncnc2c1cnn2-c1ccc(OC)cc1
Second: COc1cccc(NC(=O)CSc2nnc(NC(=O)c3ccco3)s2)c1
The “hERG current change (%, negative = inhibition) at 1uM” value of the first is lower: 6.68% for the first, 8.44% for the second.

Going from `NS(=O)(=O)c1ccc(NC(=O)CCC(=O)c2cccs2)cc1` to `Cc1ccc(S(=O)(=O)CCC(=O)OCC(=O)Nc2ccc(N3CCOCC3)cc2)cc1`, the “hERG current change (%, negative = inhibition) at 1uM” value falls from 10.5% to 9.08%.

First: Br.COc1cc(NS(=O)(=O)c2ccc(Nc3nc(-c4cccc([N+](=O)[O-])c4)cs3)cc2)nc(OC)n1
Second: CC1=CC(C)(C)Nc2ccc(OC(=O)CN3C(=O)c4cccc5cccc(c45)C3=O)cc21
The “hERG current change (%, negative = inhibition) at 1uM” value of the first is lower: 0.0217% for the first, 9.14% for the second.

Compared with `O=S1(=O)CCOC[C@H](Cc2ccccc2)N1Cc1ccc(Cl)cc1`, `O=C1CCC(C(=O)N2CCSCC2)CN1CCc1ccccc1` (centres unmarked) is lower in “hERG current change (%, negative = inhibition) at 1uM” value: 21% for the first, 14.5% for the second.

First: O=C(COc1ccc(Cl)cc1Cl)OCC(=O)c1ccc[nH]1
Second: C=CCNC(=O)COc1cc(C)ccc1C
The “hERG current change (%, negative = inhibition) at 1uM” value of the first is lower: -0.706% for the first, 15.6% for the second.

Going from `CCc1cccc(CC)c1NC(=O)CO/N=C(\N)CC(=O)NC1CCCCC1` to `CCCn1c(CCC(=O)O)nc2cc(S(=O)(=O)N3CCCC3)ccc21`, the “hERG current change (%, negative = inhibition) at 1uM” value falls from 18.5% to 13.7%.

Going from `Cc1ccc(-c2nn3c(C)nnc3s2)cc1NC(=O)c1ccc(Br)o1` to `O=C(OCc1nc(-c2ccccc2Cl)no1)c1ccco1`, the “hERG current change (%, negative = inhibition) at 1uM” value rises from -4.82% to 8.17%.
